Reference: the supplement of paper PMC8512760
The other results are listed elsewhere or left out. Most values come without repeats; read them as rough.

Key:
Assay in all cases: cell viability relative to vehicle (% of vehicle); basal-like triple-negative breast cancer lines; higher = less cytotoxic
Conditions in all cases: 10 µM; 72 h
[1] = test system: HCC-1143
[2] = test system: HCC-1187
[3] = test system: MDA-468
[4] = test system: SUM-149
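Note: stably firefly luciferase-GFP labeled cells in 96-well plates, viability read as luciferase photon flux after d-luciferin addition, treated wells normalized to vehicle wells, single-dose high-throughput screen.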

| Structure (SMILES) | cell viability [1] | cell viability [2] | cell viability [3] | cell viability [4] |
| --- | --- | --- | --- | --- |
| CCOC(=O)c1ncn2c1CN(C)C(=O)c1cc(F)ccc1-2 [Flumazenil] | 98.3 | 98.7 | 91.4 | 111 |
| O=C(Nc1ccccc1)c1ccccc1O [Salicylanilide] | 146 | 127 | 63.5 | 162 |
| CCN(CCO)CCCC(C)Nc1ccnc2cc(Cl)ccc12.O=S(=O)(O)O (stereo not given) [Hydroxychloroquine Sulfate] | 70.2 | 86.5 | 90.8 | 74.6 |
| CCCCCCCCCCCCCCCCCCCCCCO [Docosanol (Abreua)] | 72.6 | 85 | 99 | 88.9 |
| Oc1ccc(OCc2ccccc2)cc1 [Monobenzone] | 147 | 150 | 171 | 144 |
| Cc1noc(NS(=O)(=O)c2ccc(N)cc2)c1C [Sulfisoxazole] | 99.3 | 80.1 | 86.2 | 106 |
| CC(C)C(N)C(=O)OCCOCn1cnc2c(=O)nc(N)[nH]c21.Cl (stereo not given) [Valaciclovir HCl] | 98.9 | 112 | 88.5 | 118 |
| CCOC(=O)C1=C(COCCN)NC(C)=C(C(=O)OC)C1c1ccccc1Cl.O=S(=O)(O)c1ccccc1 (stereo not given) [Amlodipine Besylate] | 89.7 | 73.7 | 95.2 | 87.4 |
| CN1C(C(=O)Nc2ccccn2)=C(O)c2ccccc2S1(=O)=O [Piroxicam] | 74 | 105 | 114 | 91.3 |
| Cl.O=C(Nc1ccccc1)OCC(CN1CCCCC1)OC(=O)Nc1ccccc1 (stereo not given) [Diperodon HCl] | 93 | 103 | 110 | 127 |
| O=C(O)[C@H](O)[C@@H](O)C(=O)O.c1cnc2cc3c(cc2n1)C1CNC[C@@H]3C1 [Varenicline Tartrate] | 108 | 78.3 | 105 | 135 |
| N#CC(=C1SCC(c2ccc(Cl)cc2Cl)S1)n1ccnc1 (stereo not given) [Luliconazole] | 99.5 | 111 | 83.5 | 131 |
| CC[C@]1(O)C[C@H]2CN(CCc3c([nH]c4ccccc34)[C@@](C(=O)OC)(c3cc4c(cc3OC)N(C=O)[C@H]3[C@@](O)(C(=O)OC)C(OC(C)=O)[C@]5(CC)C=CCN6CC[C@]43C65)C2)C1.O=S(=O)(O)O (stereo not given in full) [Vincristine] | 62.7 | 53.5 | 109 | 116 |
| O=C(C=Cc1cccc(S(=O)(=O)Nc2ccccc2)c1)NO [Belinostat (PXD101)] | 43.1 | 26.9 | 32.5 | 113 |
| COCCCOc1cc(CC(CC(N)C(O)CC(C(=O)NCC(C)(C)C(N)=O)C(C)C)C(C)C)ccc1OC.COCCCOc1cc(CC(CC(N)C(O)CC(C(=O)NCC(C)(C)C(N)=O)C(C)C)C(C)C)ccc1OC.O=C(O)C=CC(=O)O (stereo not given) [Aliskiren Hemifumarate] | 97.2 | 117 | 95.2 | 106 |
| CC[C@H](C)[C@H]1O[C@]2(CC[C@@H]1C)C[C@@H]1C[C@@H](C/C=C(\C)[C@@H](O[C@H]3C[C@H](OC)[C@@H](O[C@H]4C[C@H](OC)[C@@H](O)[C@H](C)O4)[C@H](C)O3)[C@@H](C)/C=C/C=C3\CO[C@@H]4[C@H](O)C(C)=C[C@@H](C(=O)O1)[C@]34O)O2 [Ivermectin] | 36.3 | 26 | 21 | 29.9 |
| NC(CO)(CO)CO [Trometamol] | 67.3 | 83.3 | 100 | 109 |
| CC(=O)N[C@H](Cc1ccc2ccccc2c1)C(=O)N[C@H](Cc1ccc(Cl)cc1)C(=O)N[C@H](Cc1cccnc1)C(=O)N[C@@H](CO)C(=O)N[C@@H](Cc1ccc(O)cc1)C(=O)N[C@H](CCCNC(N)=O)C(=O)N[C@@H](CC(C)C)C(=O)N[C@@H](CCCNC(=N)N)C(=O)N1CCC[C@H]1C(=O)N[C@H](C)C(N)=O [Cetrorelix] | 77.2 | 85.4 | 119 | 117 |
| O=C1NC(=O)[C@@H](c2c[nH]c3ccccc23)[C@H]1c1cn2c3c(cccc13)CCC2 [Tivantinib (ARQ 197)] | 50.7 | 45 | 48 | 113 |
| CC1CCc2cc(F)cc3c(=O)c(C(=O)O)cn1c23 (stereo not given) [Flumequine] | 102 | 108 | 103 | 126 |
